Measured values as given in a collection of fitness landscapes (doi:10.1038/s41467-024-54723-y).
Whole data set: some 18,000 sequences, median “TetR repression strength (sort-seq, GFP reporter)” near 0.23, cut for the highest 2% near 0.68. This is one part of the list.

Biological target: TetR (class B, Tn10) (UniProt P04483)
Assay: TetR repression strength (sort-seq, GFP reporter) (relative to tetO2 = 1); higher = stronger repression
Conditions: E. coli
Procedure, shortened: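 In LB with 50 µg/mL chloramphenicol, E. coli SIG10-MAX holding a low-copy library with eight randomized operator positions between a constitutive promoter and sfGFP, plus constitutive TetR, grew for 5 h at 37 °C. FACS then sorted 10^6 cells into 13 fluorescence bins for Illumina sequencing of each bin. Repression strength equals the top bin index plus one less the read-weighted mean bin, normalized to the unaltered operator. Values from three independent transformations were averaged when reads were ≥30 in every replicate and the CV was ≤0.5.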

Sequence of UniProt P04483 (P04483 whole entry): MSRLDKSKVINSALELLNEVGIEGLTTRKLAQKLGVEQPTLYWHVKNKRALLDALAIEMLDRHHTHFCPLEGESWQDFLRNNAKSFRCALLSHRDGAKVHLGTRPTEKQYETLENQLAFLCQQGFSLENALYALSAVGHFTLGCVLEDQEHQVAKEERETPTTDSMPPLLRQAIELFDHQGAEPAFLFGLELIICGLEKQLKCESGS

Point of comparison: TCCCAAGGAGTTGGTGAGA, TetR repression strength 0.17. Against it:
- TCCCCTGTAGTGCCTGAGA — higher, 0.256
- TCCCTCATAGTAAGTGAGA — higher, 0.276
- TCCCTGTGAGTGAACGAGA — lower, 0.149
- TCCCGGCAAGTGGGGGAGA — higher, 0.23
- TCCCTGTCAGTTGCAGAGA — higher, 0.468
- TCCCAGCGAGTCTCGGAGA — higher, 0.29
- TCCCATGAAGTTTAGGAGA — lower, 0.123
- TCCCTGTAAGTAAGCGAGA — higher, 0.27
- TCCCACATAGTTAAGGAGA — higher, 0.274
- TCCCGCGAAGTGGTAGAGA — higher, 0.184
- TCCCACATAGTGAAGGAGA — higher, 0.227
- TCCCGTAAAGTTCCGGAGA — higher, 0.38
- TCCCCCATAGTTCACGAGA — higher, 0.46
- TCCCAGTCAGTGATCGAGA — higher, 0.322
- TCCCAGAGAGTTCTCGAGA — higher, 0.174
- TCCCTGCGAGTTCAGGAGA — lower, 0.122
- TCCCCGGGAGTCGTAGAGA — higher, 0.195
- TCCCATGAAGTGAAAGAGA — lower, 0.138
- TCCCCGGCAGTCCCGGAGA — higher, 0.416
- TCCCGTCAAGTAAGCGAGA — higher, 0.199
- TCCCTGCGAGTCGGGGAGA — higher, 0.217
- TCCCGGACAGTGGACGAGA — lower, 0.0721
- TCCCACGGAGTGCAGGAGA — higher, 0.194
- TCCCGGCAAGTCTCGGAGA — lower, 0.102
- TCCCTGCGAGTAGGAGAGA — lower, 0.0666
- TCCCGTACAGTCCATGAGA — lower, 0.158
- TCCCATATAGTTGTAGAGA — higher, 0.454
- TCCCCGCAAGTCGGAGAGA — higher, 0.258
- TCCCAGGGAGTTTACGAGA — higher, 0.183
- TCCCTAGGAGTGGGGGAGA — higher, 0.202
- TCCCTGAGAGTCGTAGAGA — higher, 0.18
- TCCCATCTAGTACCTGAGA — higher, 0.357
- TCCCTGCGAGTGTCGGAGA — higher, 0.255
- TCCCCTAGAGTGTGTGAGA — lower, 0.147
- TCCCACCGAGTGGATGAGA — lower, 0.125
- TCCCCACGAGTTCCGGAGA — higher, 0.267
- TCCCTGCGAGTTGTTGAGA — lower, 0.0124
- TCCCGTGTAGTGGATGAGA — lower, 0.0847
- TCCCCAGAAGTTGTGGAGA — lower, 0
- TCCCTGGAAGTCGGTGAGA — higher, 0.317
- TCCCCGGTAGTTGAAGAGA — higher, 0.343
- TCCCGATGAGTCTGCGAGA — higher, 0.339
- TCCCAGAAAGTGCCCGAGA — lower, 0.136
- TCCCAGTCAGTTGGGGAGA — higher, 0.23
- TCCCACATAGTTGGAGAGA — higher, 0.254
- TCCCTCGAAGTGGCGGAGA — higher, 0.391
- TCCCCATGAGTGTCCGAGA — higher, 0.415
- TCCCGAAGAGTAAGTGAGA — higher, 0.207
- TCCCCGCTAGTGCGGGAGA — higher, 0.343
- TCCCACGCAGTCATTGAGA — higher, 0.301
- TCCCGTACAGTTGGTGAGA — higher, 0.233
- TCCCGGTGAGTGAAGGAGA — lower, 0.145
- TCCCGACAAGTAGATGAGA — lower, 0.147
- TCCCCTTCAGTGCTAGAGA — higher, 0.416
- TCCCGAGTAGTAGGGGAGA — lower, 0.0701
- TCCCGGGGAGTAGAAGAGA — lower, 0.0431
- TCCCCTTAAGTTATAGAGA — higher, 0.263
- TCCCTTAAAGTTGGGGAGA — lower, 0
- TCCCTCCAAGTAGTGGAGA — lower, 0.154
- TCCCGAAGAGTCGGGGAGA — higher, 0.212
- TCCCCATAAGTATGGGAGA — lower, 0.0642
- TCCCTGAAAGTGGAGGAGA — higher, 0.309
- TCCCGTTCAGTTCCTGAGA — higher, 0.705
- TCCCCGTTAGTTCTCGAGA — lower, 0.167
- TCCCGTTGAGTGCGAGAGA — lower, 0.133
- TCCCGTCAAGTTGTCGAGA — lower, 0.135
- TCCCAGGGAGTAAGAGAGA — higher, 0.256
- TCCCGTGTAGTGTACGAGA — higher, 0.213
- TCCCACCGAGTCAAGGAGA — higher, 0.328
- TCCCAAACAGTCTATGAGA — higher, 0.433
- TCCCCGAGAGTTCGTGAGA — lower, 0.111
- TCCCGTAGAGTGGGGGAGA — lower, 0.142
- TCCCTGTTAGTTATAGAGA — higher, 0.494
- TCCCATAGAGTCTACGAGA — higher, 0.202
- TCCCACGGAGTCCTCGAGA — higher, 0.535
- TCCCTGCTAGTATGTGAGA — higher, 0.461
- TCCCGCGGAGTGAAGGAGA — higher, 0.174
- TCCCGTTCAGTAGTCGAGA — higher, 0.615
- TCCCTCTGAGTCGAAGAGA — lower, 0.0537
- TCCCGTTAAGTAAAAGAGA — higher, 0.276
- TCCCTGGGAGTGGGAGAGA — lower, 0.157
- TCCCTACTAGTCCAAGAGA — higher, 0.385
- TCCCCCCTAGTCGGGGAGA — higher, 0.59
- TCCCCGAGAGTTTGTGAGA — lower, 0.111
- TCCCCCTCAGTTTTTGAGA — higher, 0.357
- TCCCCCTGAGTGGAGGAGA — higher, 0.227
- TCCCGATCAGTACCAGAGA — higher, 0.238
- TCCCTGACAGTAATTGAGA — lower, 0.0305
- TCCCGTTCAGTAAGTGAGA — higher, 0.444
- TCCCAAACAGTTCGTGAGA — lower, 0.14
- TCCCAACTAGTGTGAGAGA — lower, 0.132
- TCCCTAGTAGTGCCAGAGA — lower, 0.162
- TCCCCGCGAGTTGAAGAGA — higher, 0.335
- TCCCTAGAAGTATTAGAGA — lower, 0
- TCCCCAGTAGTGGCGGAGA — higher, 0.333
- TCCCGGGAAGTCTCAGAGA — higher, 0.187
- TCCCTCCTAGTCCTTGAGA — higher, 0.402
- TCCCTCGTAGTAGGGGAGA — lower, 0.151
- TCCCTCAGAGTTCCAGAGA — higher, 0.313
- TCCCTGTCAGTCGGTGAGA — higher, 0.378
- TCCCCGTCAGTATTTGAGA — higher, 0.351
